# Earlier results in PMC11006913.
# Numbering of substitutions follows the chain as printed. This is one part of the list.
# How the values were obtained:
# PBX4 (Homo sapiens) = biological target: T1, PBX4 (Homo sapiens) (UniProt Q9BYU1); conditions: PBM; conditions not shown; double strand, one strand shown; scale: upbm affinity estimate (log intensity, higher = more binding, comparable within an allelic series)
# T1 sequence: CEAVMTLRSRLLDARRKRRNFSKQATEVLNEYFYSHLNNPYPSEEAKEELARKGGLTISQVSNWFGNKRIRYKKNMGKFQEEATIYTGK
# [1] = biological target: T2, PBX4 R215Q (Homo sapiens) (UniProt Q9BYU1); conditions: PBM; conditions not shown; double strand, one strand shown; scale: upbm affinity estimate (log intensity, higher = more binding, comparable within an allelic series)
# T2 sequence: T1 sequence with R19Q
Sequence,binding signal (PBX4 (Homo sapiens)),binding signal [1]
AGCAAAGG [8-mer AGCAAAGG],9.93,9.92
GGCCACAA [8-mer GGCCACAA],9.79,9.77
GTCAATCA [8-mer GTCAATCA],10.9,10.3
GACGTTCC [8-mer GACGTTCC],10,9.86
CGCTTTAG [8-mer CGCTTTAG],9.96,9.93
GCGAAAAC [8-mer GCGAAAAC],9.85,9.8
TAGTCTAA [8-mer TAGTCTAA],10,10
CGACTCCC [8-mer CGACTCCC],9.82,9.79
TCGTCAAA [8-mer TCGTCAAA],11,10.3
AAAACCGG [8-mer AAAACCGG],9.98,9.84
AAATGACG [8-mer AAATGACG],10.6,10.1
AACCATGG [8-mer AACCATGG],9.95,9.91
CGGATACG [8-mer CGGATACG],9.92,9.92
TGATGACA [8-mer TGATGACA],10.6,10.1
CATGTCAA [8-mer CATGTCAA],11,10.3
GAAGACCA [8-mer GAAGACCA],9.93,9.85
GTTGCCAA [8-mer GTTGCCAA],10,9.87
CCAAGGGA [8-mer CCAAGGGA],9.81,9.9
CAGCCCCC [8-mer CAGCCCCC],9.58,9.77
CGTCAATC [8-mer CGTCAATC],10.7,10.1
CACAAGGA [8-mer CACAAGGA],9.99,9.91

Sequence,binding signal (PBX4 (Homo sapiens)),binding signal [1]
CTCATCAC [8-mer CTCATCAC],10.8,10.2
GCTCGTCA [8-mer GCTCGTCA],11,10.1
AACGGACG [8-mer AACGGACG],9.85,9.84
CGCTGATA [8-mer CGCTGATA],10,9.9
CTTCCCTC [8-mer CTTCCCTC],9.88,9.87
CCCCACAA [8-mer CCCCACAA],9.95,9.93
CATGCCAG [8-mer CATGCCAG],9.9,9.83
GGTTCGGA [8-mer GGTTCGGA],9.86,9.83
CGGAACAG [8-mer CGGAACAG],9.97,9.94
GTAGTAAC [8-mer GTAGTAAC],10,9.92
ATGATGAG [8-mer ATGATGAG],10.6,10.1
TAGCCCGA [8-mer TAGCCCGA],9.86,9.81
CATCAATG [8-mer CATCAATG],10.6,10.1
GGCCGCAC [8-mer GGCCGCAC],9.81,9.79
CGAGATAG [8-mer CGAGATAG],9.94,9.87
TACTGCTA [8-mer TACTGCTA],9.9,9.94
CATACCGG [8-mer CATACCGG],10,9.85
GGATGGAC [8-mer GGATGGAC],9.98,9.9
ATATGACG [8-mer ATATGACG],10.6,10.1
ACGGATCC [8-mer ACGGATCC],10,9.84
AAAAATCG [8-mer AAAAATCG],9.99,9.94

Sequence,binding signal (PBX4 (Homo sapiens)),binding signal [1]
ATGACGAG [8-mer ATGACGAG],10.9,10.2
GATATCGA [8-mer GATATCGA],9.96,9.95
ACGACCCA [8-mer ACGACCCA],9.97,9.9
CACCCTGA [8-mer CACCCTGA],9.97,9.89
AATGGAGG [8-mer AATGGAGG],10,9.93
CTCGTCAA [8-mer CTCGTCAA],11.1,10.2
AGGTCGTC [8-mer AGGTCGTC],9.93,9.8
CGGCCATC [8-mer CGGCCATC],9.94,9.79
ACACGGGA [8-mer ACACGGGA],10,9.97
CGTTGCGC [8-mer CGTTGCGC],9.83,9.7
CCGTATCG [8-mer CCGTATCG],10,9.9
CCCGTACC [8-mer CCCGTACC],9.77,9.81
ACCTCTCG [8-mer ACCTCTCG],9.76,9.83
GCCGCGCA [8-mer GCCGCGCA],9.66,9.67
ACCCAGCC [8-mer ACCCAGCC],9.6,9.65
AACCCCAT [8-mer AACCCCAT],9.96,9.92
GCCGTTAC [8-mer GCCGTTAC],9.98,9.83
TCAATCAA [8-mer TCAATCAA],11,10.3
CGTCATCA [8-mer CGTCATCA],10.7,10.1
